Values marked as one replicate rest on one cluster of the flow cell; about a third of the high ones do not repeat.
Tested on: ATP
Test: switch fluorescence ratio, 500 uM ATP over buffer (Cy3 cluster intensity, sum of 5 cycles each) (fold (ratio)); higher = stronger signal-on switching upon ATP binding; sequences stand for … in TCGTCGGCAGCGTCAGATGTGTATAAGAGACAGTTTTTTTTTTTTTTTTTTTTTTTTT…TC
Conditions: aptamer strand: ATP DNA aptamer (quencher-CACCTGGGGGAGTATTGCGGAGGAAGG + anchor), 100 nM annealed; ATP concentration: 500 uM; one replicate
How it was run: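 The fluorescence ratio divides summed target-cycle Cy3 intensity by summed buffer-cycle Cy3 intensity for each cluster and is averaged per switch-domain sequence. Cy3-labelled switching-strand clusters on a modified Illumina MiSeq flow-cell were annealed to 100 nM quencher-labelled ATP aptamer, then imaged in selection buffer and again after 15 min with 500 uM ATP at 22 °C. Five such cycles were run, with NaOH stripping and re-annealing between them, and clusters outside 100-1000 RFU were excluded.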
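Further: ATP exposure 15 min at 22 °C before imaging.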

Row | Sequence | switch fluorescence ratio
1 | GCCACCTACC | 1.52
2 | GCCACGCCGC | 1.14
3 | GCCACGTAAC | 1.44
4 | GCCACTTGAG | 1.02
5 | GCCAGAAGCC | 1
6 | GCCAGAGGCG | 0.99
7 | GCCAGCGGTA | 0.969
8 | GCCAGGAGGT | 1.07
9 | GCCAGGGAAC | 1.03
10 | GCCAGGGTAA | 0.995
11 | GCCAGGTATT | 1
12 | GCCAGGTCGC | 1.02
13 | GCCATAAAAG | 0.962
14 | GCCATACCTC | 3.06
15 | GCCATACTAA | 1.08
16 | GCCATAGGTA | 0.96
17 | GCCATCTAAA | 0.962
18 | GCCATGACGC | 1.04
19 | GCCATGGGTC | 0.961
20 | GCCATGTGTA | 1.03
21 | GCCATTGGCC | 1.02
22 | GCCATTTAG | 1.02
23 | GCCCACAAGG | 1.11
24 | GCCCACCACG | 1.03
25 | GCCCCGTTAC | 3.18

Row | Sequence | switch fluorescence ratio
26 | GCCCCTTCTT | 1.02
27 | GCCCCTTGTC | 1.09
28 | GCCCGAACAG | 1.03
29 | GCCCGTAGAC | 2.28
30 | GCCCTACTGG | 1.05
31 | GCCCTAGTAC | 1.15
32 | GCCCTAGTGG | 1.03
33 | GCCCTCTTCT | 0.995
34 | GCCCTCTTGG | 1.05
35 | GCCCTTGAAA | 1.02
36 | GCCGAAAACA | 0.966
37 | GCCGACTTGC | 1.08
38 | GCCGAGGGTG | 1.11
39 | GCCGAGTCCT | 1.01
40 | GCCGCCCTAT | 1.06
41 | GCCGCCGGCG | 1.07
42 | GCCGCGCG | 1.05
43 | GCCGCGCTAC | 4.01
44 | GCCGCGGATT | 1.05
45 | GCCGCGGTCA | 1.04
46 | GCCGGCAATC | 1.08
47 | GCCGGCGACG | 0.991
48 | GCCGGGATCA | 0.997
49 | GCCGGGCAG | 1
50 | GCCGGTAACT | 1

Row | Sequence | switch fluorescence ratio
51 | GCCGGTGCCT | 0.966
52 | GCCGGTTAGG | 0.98
53 | GCCGGTTAGT | 1.03
54 | GCCGTAATAG | 4.09
55 | GCCGTACGAA | 0.975
56 | GCCGTATAGA | 1.03
57 | GCCGTCATAT | 1.01
58 | GCCGTCCATA | 1
59 | GCCGTCGC | 1.04
60 | GCCGTCTGAG | 0.995
61 | GCCGTGATGA | 1.03
62 | GCCGTGGGTT | 0.948
63 | GCCGTGTCAT | 0.966
64 | GCCGTTTCA | 1.03
65 | GCCTAAGAT | 1
66 | GCCTAAGTG | 1.05
67 | GCCTACATCA | 1.01
68 | GCCTACCTAC | 1.72
69 | GCCTATATA | 1
70 | GCCTATGTGT | 1.03
71 | GCCTCAGGTT | 1.26
72 | GCCTCCCACT | 1.64
73 | GCCTCCCTGT | 1.21
74 | GCCTCCTGGT | 0.947
75 | GCCTCTATTG | 0.879

Row | Sequence | switch fluorescence ratio
76 | GCCTGAAGCA | 0.995
77 | GCCTGACTCA | 1.83
78 | GCCTGAGTTG | 1
79 | GCCTGCAAGG | 1.46
80 | GCCTGCACGG | 1.02
81 | GCCTGCAGCT | 0.999
82 | GCCTGCTTGG | 0.974
83 | GCCTGGAATA | 1.06
84 | GCCTGGGA | 0.966
85 | GCCTGGGATT | 1.04
86 | GCCTGGGTCG | 0.976
87 | GCCTGTGGAA | 1.05
88 | GCCTGTGGTC | 0.967
89 | GCCTGTTATG | 0.993
90 | GCCTTAAATA | 1.01
91 | GCCTTAAATC | 1.01
92 | GCCTTAGAGA | 0.972
93 | GCCTTCAAGA | 1.04
94 | GCCTTTCCTG | 1.01
95 | GCCTTTTCAG | 0.963
96 | GCGAAACGCG | 1.01
97 | GCGAAATCCT | 1.13
98 | GCGAACCCTT | 1.01
99 | GCGAACGTGC | 1.12
100 | GCGAAGGGTA | 1.01

Source: the supplement of paper PMC10126150
